Source: publication PMC12136788
This is one part of the list.

B1: chr1:32196777:32196878:+|3pUTR|ENSG00000084652|msi1|total|mutant (ssRNA)
RNA: GGGAGUUCUACAGUCCGACGAUCUUUGAAGCCCGUUCAUUGUCCUGCAGGUCCCUUCAUCUUCCAUACCCCGCCCACUCUUUCCGCCCUUACCUUAAAUCUCUCAGAUAAGUUGGUUCACAAAGAAUGUUAAGUACUGAAUCACAACAGAGGAUUGAGCAUCA
B2: chr15:69268886:69268987:+|CDS|ENSG00000138604|unk|total|mutant (ssRNA)
RNA: GGGAGUUCUACAGUCCGACGAUCGGAGUUAAAGCUGUGUUUAUGAAUAAACAUGACUGGUAUGAAGAAUAUCCAACCACACCCCGCUCUUUUGUUUUAAAUGGCUUUAUGUAUUCUUUAAUUGGGCUGUAUGACUUAAAAGAACAACAGAGGAUUGAGCAUCA
B3: chr17:80395157:80395266:+|3pUTR|ENSG00000173821|unk|total|mutant (ssRNA)
RNA: GGGAGUUCUACAGUCCGACGAUCCUUCAAAGCCUUAACUGUCAAAUCUUGCAUUAUCUUGUUUGUACAGAAAUAUACUGGCCCCGCAGAGGCAAAAAAAAAAAAAAUGAAUUUUAUUUUACUUGUCACACCUGUCUUAAUAAACAACAGAGGAUUGAGCAUCA
B4: chr16:46702281:46707703:-|three_prime_utr|ENSG00000140795|control|control|control (ssRNA)
RNA: GGGAGUUCUACAGUCCGACGAUCUCACUACGUGUGAAAUGCUCUGAGUACCUUUCAAAUAUACCUACUUUUGGUGGUAAGUGUAGGGAUGCUUUAGGUAGGUACUUUGCAUCUGUCGAAUUUAAAUUCUAAACUCACACUGAUCAACAGAGGAUUGAGCAUCA
B5: chr3:152464585:152464701:+|3pUTR|ENSG00000152601|msi1|FALSE|unique (ssRNA)
RNA: GGGAGUUCUACAGUCCGACGAUCAUAUUUUUGAAAUCCCUGAGUAUCAGGCCUUGUUAUAAAUAAGCUGCAUAAUCAAUAAAUAGAACAAGGGACUUUUUGUUGAUAAUCCAAAUACUCAAAGUUUACGUAAUGAAAAUUAUACAACAGAGGAUUGAGCAUCA
B6: ENSG00000124766:be:win_3701|3pUTR|ENSG00000124766|bound_else_gene|NA|bound_elsewhere_windowed (ssRNA)
RNA: GGGAGUUCUACAGUCCGACGAUCUCAGGUUUAUAGCUGUUGUGUUUAAAAAUUGAAAAAAGUGGAAAACAUCUUUGUACAUUUAAGUCUGUAUUAUAAUAAGCAAAAAGAUUGUGUGUAUGUAUGUUUAAUAUAACAUGACAGCAACAGAGGAUUGAGCAUCA
B7: chr12:108645191:108645284:-|3pUTR|ENSG00000110880|msi1_unk|total|mutant (ssRNA)
RNA: GGGAGUUCUACAGUCCGACGAUCUCUUUUUUUUUUUUUUUUUUUAAGCCAUGACAUCCCAGAAGAGGACAGUGAAUUACUCCCCGGUCGGCUCUUACCGAGUGGCCACCGUGUUCUGUCAAAACACUUGCUUCCAUUUUCAGACAACAGAGGAUUGAGCAUCA
B8: chr3:51403142:51403395:-|CDS|ENSG00000145041|control|control|control (ssRNA)
RNA: GGGAGUUCUACAGUCCGACGAUCCGCAGGGGAAGAUGGGGACAAUGACUUCUCUCCCUCUGAUGAGGAGCUAGCAAACCUUCUAGAGGAGGGAGAGGACGGGGAGGAUGAAGACUCUGAUGCAGAUGAGGAGGUGGAACUGAUCAACAGAGGAUUGAGCAUCA
B9: chr18:70325936:70326038:+|CDS|ENSG00000170677|unk|FALSE|unique (ssRNA)
RNA: GGGAGUUCUACAGUCCGACGAUCAGCUUUCGCUCCCAUGGUAAAACACUUCACACUAGAAUUGAGCACUCAAAUGGUAGGUUUAGCUUUUAUGAACAGCCAGAUGUGGAAGGACAUACGUCCAUAGUUGAUCUAAUUGAGCAUCAACAGAGGAUUGAGCAUCA
B10: chr16:1999495:2000256:-|CDS|ENSG00000167962|control|control|control (ssRNA)
RNA: GGGAGUUCUACAGUCCGACGAUCUGGCACCGCCCCCACCAGCCUUGUCUCUGCCUGGAACAGCAGCAGUAGCAGCAAGAAGGUAGCACAGCCCCCACUCUCGGCGCAGGCUACCGGCAGCGGCCAGCCCACCAGGAAGGCUGGCAACAGAGGAUUGAGCAUCA
B11: chr3:66380370:66380471:-|CDS|ENSG00000144749|msi1|FALSE|unique (ssRNA)
RNA: GGGAGUUCUACAGUCCGACGAUCCGGUCAAGUGGGGGUCUGACAGGUUCGUUCUUUCCUUGUAGGGGAUUCUUCCUGGACUUUAGCAAGGUUGUAUCACCCGGACUCCACAGAGCUACAGCCUGCAUCUUCAUUAACUUCAGGCAACAGAGGAUUGAGCAUCA
B12: ENSG00000198589:be:win_8851|3pUTR|ENSG00000198589|bound_else_gene|NA|bound_elsewhere_windowed (ssRNA)
RNA: GGGAGUUCUACAGUCCGACGAUCUUAUUCCAGCUAUAAUAUUAUGAAGAACAUUUCCCAUGCAUCUACAAGCUUGAGAAAUAGGAUUUUCACAGUGGGGAAGUGGGUUACAAUAUUGGAAUAGGAAAAUUUGAUGCUGUAAUUCAACAGAGGAUUGAGCAUCA
B13: chr7:5620113:5620210:-|3pUTR|ENSG00000011275|msi1_unk|FALSE|overlapping (ssRNA)
RNA: GGGAGUUCUACAGUCCGACGAUCGUCACUUUGUAUAAAAACAAGAAACGAUUAGUUCAUUAAACUUUUUCUUUACCUUCUGGUAGUAAAAAUAGAUAAAAUAAUUCCGUUUCAACUACUGUGUGUAAAAAGCCUGUAUCAUAUCAACAGAGGAUUGAGCAUCA
B14: chr1:43978039:43978149:+|3pUTR|ENSG00000117410|unk|total|mutant (ssRNA)
RNA: GGGAGUUCUACAGUCCGACGAUCGGCCGUGCCUCACUUUUAUUUAUUGCUGGUUUUCCUGGGACAGCUGGAGCUGUGUCCCUCCGCCUUUCAGAGGCUUGGUGUUCAGGGCCCUCCCUGCACUCCCCUCUUGCUGCGUGUUGACAACAGAGGAUUGAGCAUCA
B15: chr16:2457226:2457327:+|3pUTR|ENSG00000162063|unk|FALSE|unique (ssRNA)
RNA: GGGAGUUCUACAGUCCGACGAUCCAAGCCAUCAGAAUGUUGAAAUGAGGGUGAAGAGCUCAGAUCCCUCUCUUUGGAAAGUUUAGCCUGGAAGCAGUUGGCCACACUGUGUGGAGGGCACCUCUCUGUCCCUUCCGUGUCUCACAACAGAGGAUUGAGCAUCA
B16: chr3:11557766:11557867:-|3pUTR|ENSG00000144560|msi1|total|mutant (ssRNA)
RNA: GGGAGUUCUACAGUCCGACGAUCCUGGACUGCAGACUCUACCAAUCACGGGCAUUUUAUCUUCUCUGAACACUGCAGUUUGUCCGACCCGAGCUGAGGUUGGAGGAUUCCACCGUGCUUUAAACGUGAUGCAUGUUUUAAUGGCAACAGAGGAUUGAGCAUCA
B17: chr7:92141642:92142809:-|three_prime_utr|ENSG00000240720|control|control|control (ssRNA)
RNA: GGGAGUUCUACAGUCCGACGAUCAACAGUUUCUUUUGGAUCUUUUUGCAGAGCUACUAUGGAAGAUGCACUCUUUCUGCGGGUAGGUUAUGAGUCUUUUAGUCUUGGUAUAUCAUGCACAGUGUGUAGUAGUCUGCCGAGAGCCAACAGAGGAUUGAGCAUCA
B18: chr12:57820040:57820141:-|3pUTR|ENSG00000175215|msi1|total|mutant (ssRNA)
RNA: GGGAGUUCUACAGUCCGACGAUCUUUUGCUUAUCAUGUUCCAUUUCGUGCCGCUUUCCCCCUUCAAGAUGCCAUUUGGAGGGCCGGGGAUCUGCUUCCCACUGUGACUGGGCUAUGGGAUUCUGACUACCUUGCUUACAGAUUCAACAGAGGAUUGAGCAUCA
B19: chr5:80437677:80437780:+|CDS|ENSG00000039319|unk|total|mutant (ssRNA)
RNA: GGGAGUUCUACAGUCCGACGAUCUUCCUUUCAGGAAGAUAAGACUGUUAUAAAACAAUCUGCACAAGAAGACUCAAAAAGUUCCGACCUUAAGGAUAAUGAUGUAAUCCAAGAUUCCUCUUCAGCUUUACAUGUUUCCAGUAACAACAGAGGAUUGAGCAUCA
B20: chrX:50386357:50386586:-|CDS|ENSG00000274588|control|control|control (ssRNA)
RNA: GGGAGUUCUACAGUCCGACGAUCAGAAUAUGCAGACAGCAGCAAGGCAGAUAGGAAGCCCUUCAUUCCUCAAAUAGACCACAUAGCCAAGUGCAAGUUGGAGCUGGCUACAAAGGCCCAGAGUCUCCAGAAAUCCUUGAAACUCAACAGAGGAUUGAGCAUCA
B21: chr11:8104520:8104621:+|3pUTR|ENSG00000166402|msi1|FALSE|unique (ssRNA)
RNA: GGGAGUUCUACAGUCCGACGAUCGGCAAUCAGCAAUCAACUGAGGUUUCUUAAUUGUGAUUAUAUUCCUGAGAAUGAAUGAGUAGGAAAGGAAUAAGGAUGUUGUUAUGAUCGCCUGUGGAUUUUGUCCAUUCAUCUCAUGCUCAACAGAGGAUUGAGCAUCA
B22: chr2:96185838:96185916:-|3pUTR|ENSG00000084090|msi1_unk|total|mutant (ssRNA)
RNA: GGGAGUUCUACAGUCCGACGAUCUGGGAGACUAAUCCUUUCCGACCGCCGCUUUUUGAUGCUCAAAACAUCACAUUUAAAUUCCGUUUAAAAAUUUUUUAACUUUUGUGUCAAACCGGAGUUGAGGAAUUGAGCAGGAUUCUACAACAGAGGAUUGAGCAUCA

Biological target: MSI1 full-length (mouse, UniProt Q61474 1-362)
Assay: nsRBNS (natural sequence RNA bind-n-seq); RBNS binding buffer (assumed for nsRBNS): 25 mM Tris pH 7.5, 150 mM KCl, 3 mM MgCl2, 0.01% Triton X-100, 500 ug/ml BSA, 20 U/ml SUPERase-In, 4 C; UNK is unkempt and MSI1 is Musashi-1; names of the RNAs are library labels; protein concentration not given here; high values mean tight binding

Sequence of UniProt Q61474 (Q61474 whole entry): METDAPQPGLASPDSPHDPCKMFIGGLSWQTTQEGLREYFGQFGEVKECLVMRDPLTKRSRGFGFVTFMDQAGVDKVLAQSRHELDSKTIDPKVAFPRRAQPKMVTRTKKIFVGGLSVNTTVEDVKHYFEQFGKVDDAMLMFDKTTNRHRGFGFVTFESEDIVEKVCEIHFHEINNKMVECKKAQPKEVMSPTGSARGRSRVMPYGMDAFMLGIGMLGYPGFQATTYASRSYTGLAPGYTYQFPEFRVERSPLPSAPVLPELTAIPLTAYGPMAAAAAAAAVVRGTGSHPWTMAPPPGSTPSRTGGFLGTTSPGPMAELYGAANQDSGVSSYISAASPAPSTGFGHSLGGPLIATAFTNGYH

Binder | binding signal [enrichment R]
B1 | 0.851
B2 | 0.447
B3 | 0.503
B4 | 0.327
B5 | 0.698
B6 | 1.6
B7 | 2.3
B8 | 0.631
B9 | 2.06
B10 | 0.33
B11 | 0.608
B12 | 0.517
B13 | 1.15
B14 | 0.56
B15 | 0.351
B16 | 0.363
B17 | 1.27
B18 | 0.57
B19 | 0.25
B20 | 1.63
B21 | 0.299
B22 | 0.255
